# Data taken from PubChem BioAssay AID686978 (National Center for Advancing Translational Sciences (NCATS), 2013).
# Among all 420,000 compounds or so, about 64,000 (15%) were called active. The inconclusive results got no clear call from the source; some entries with a clear call stand among them for comparison. Calls come from the whole dose curve; as a rule, active = well fitted inhibition curve with a large enough effect; inconclusive = small, poorly fitted or top-dose-only effect; inactive = flat fitted curve, though single readings scatter. Potencies of inconclusive entries are left out as doubtful fits.
# Experiment: qHTS for Inhibitors of human tyrosyl-DNA phosphodiesterase 1 (TDP1): qHTS in cells in absence of CPT; note: nearly all actives have a fitted effect of over 55% in size
# Conditions: DT40 Tdp1-/- hTDP1 cells, no CPT, ATP luminescence, 48 h; activity change, negative = growth inhibition: at 46.2 µM (top of the series) unless noted
# How it was run: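 Chicken DT40 Tdp1-/- cells stably complemented with human TDP1 were seeded at 400 cells/well with DMSO in place of 20 nM camptothecin. After compound pinning, cells grew at least 48 hr at 37 °C; viability read by CellTiter-Glo luminescence.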
# % is set by controls: 0 for no effect and ±100 for the full control effect; potency is the fitted concentration of half-maximal effect; tags give direction and shape of the fitted curve.
Compound,Potency,"activity change, negative = growth inhibition"
Cc1ccc(NC2=C(c3ccc(C(F)(F)F)cc3)C(=O)c3ccccc32)cc1C,"inconclusive [inhibitor, single point]",–
O=C(NCc1ccccc1F)c1cccc(S(=O)(=O)NCc2ccccc2)c1,"inconclusive [inhibitor, single point]",–
Cc1ccc(NC(=O)COc2ccc3c(c2)OCO3)c(C)c1,"inconclusive [inhibitor, single point]",–
COc1ccccc1N(Cc1ccccc1)S(=O)(=O)c1cccc(C(=O)Nc2ncccc2C)c1,"inconclusive [inhibitor, single point]",–
O=C(NCC(c1cccnc1)N1CCc2ccccc2C1)c1ccc(F)c(F)c1 (stereo unspecified),active: 7.31 µM,–
CC(C)CCN1C(=O)c2ccccc2C1c1nnnn1C(C)C (stereo unspecified),"inconclusive [inhibitor, single point]",–
O=C(NC1CC1)c1ccc(Cn2c(SCc3cccc(F)c3)nc3cccnc32)cc1,active: 8.2 µM,–
Cc1ccc(/C=C/C2=NN(Cc3ccccc3)C(=O)CC2)cc1,"inconclusive [inhibitor, partial curve]",–
CCOc1ccccc1-c1nc(C(N)=O)c2[nH]c(=O)n(-c3cccc(C)c3)c2n1,"inconclusive [inhibitor, single point]",–
Cc1nn(C)c(C)c1CN(C)C(=O)c1cnn2c1NC(c1ccccc1)CC2C(F)(F)F (stereo unspecified),"inconclusive [inhibitor, single point]",–
O=C(NNc1ncccc1Cl)c1c(Cl)cccc1Cl,"inconclusive [inhibitor, single point]",–
C/C(=N\Nc1cc(C)nc(NCc2ccccc2)n1)c1cccc([N+](=O)[O-])c1,active: 2.91 µM,–
COc1cccc(CNC(=O)c2cc3c(C)nc4ccccc4c3o2)c1,active: 18.4 µM,–
COc1ccc(-n2c(=O)cnc3cnc(Oc4cccc(Cl)c4)nc32)cc1,"inconclusive [inhibitor, single point]",–
COc1ccc(NS(=O)(=O)c2cccc(NC(=O)c3cnccn3)c2)cc1Br,active: 18.4 µM,–
COc1cc(C(=O)Nc2nc(-c3cccs3)cs2)cc(OC)c1OC,active: 13 µM,–
CCOc1ccc(C(=O)Nc2ccc(S(=O)(=O)N3C[C@@H]4C[C@@H](C3)c3cccc(=O)n3C4)cc2)cc1,active: 11.6 µM,–
CCCCOC(=O)Cn1c(=O)c2c(nc(Br)n2Cc2ccccc2)n(C)c1=O,"inconclusive [inhibitor, single point]",–
CCCCOc1ccc(C(=O)OCC(=O)N2CCOCC2)cc1,–,inconclusive: -30.7% [inhibitor]
Cc1ccc(NC(=O)[C@@H]2CCCN2S(=O)(=O)c2ccccc2C(F)(F)F)cc1S(=O)(=O)N1CCOCC1,–,inactive: -21%
Nc1ccc(C(=O)CC(=O)Nc2ccc(Cl)cc2)cc1,–,inactive: -8.36%
N#C/C(N=Nc1ccccc1O)=N\Nc1ccccc1O,active: 23.1 µM,–
COc1ccc(Cl)cc1C(=O)NCc1ccc2c(c1)OCO2,"inconclusive [inhibitor, single point]",–

Compound,Potency,"activity change, negative = growth inhibition"
CC(C)C(NC(=O)c1ccccn1)c1nnc2n1CCN(Cc1ccc3ccccc3c1)CC2 (stereo unspecified),"inconclusive [inhibitor, single point]",–
Nn1c(SCC(=O)NC(=O)Nc2ccc3c(c2)OCCO3)nnc1C1CC1,–,inactive: -8.48%
CC1(C)CC(=O)c2cnc3c(C#N)cnn3c2C1,–,inactive: 5.03%
CN1/C(=C\C=N\NC(=O)c2ccc(O)cc2)C(C)(C)c2ccccc21,active: 18.4 µM,–
CCCCN1C(=S)NC[C@@H]1Cc1cccc2ccccc12,"inconclusive [inhibitor, single point]",–
COc1ccc(/C=C/C(=O)N(C)Cc2cccs2)cc1S(=O)(=O)N1CCOCC1,–,inactive: -26.3%
CCS(=O)(=O)N1CCc2cc(C(=O)NCc3ccc(OC)cc3)ccc21,"inconclusive [inhibitor, single point]",–
CC(OC(=O)C1=COCCO1)C(=O)c1ccc(C(C)(C)C)cc1 (stereo unspecified),"inconclusive [inhibitor, single point]",–
COc1ccc(Cc2nc3ccc(C(=O)NC4CCOC4)cc3o2)cc1 (stereo unspecified),–,inactive: 13.5%
Cc1ccc(CNC(=O)c2cc(COc3c(F)cccc3F)on2)s1,–,inactive: -28.8%
Cc1nc2c(-c3ccc(F)cc3)cnn2c(N)c1-c1ccccc1,"inconclusive [inhibitor, partial curve]",–
Cc1nn(C)cc1C(C(=O)NC1CCCCC1)N(C(=O)Cc1cccs1)c1ccc(C(C)C)cc1 (stereo unspecified),"inconclusive [inhibitor, single point]",–
OC1(CC#CCN2CCCCC2)c2ccccc2-c2ccccc21,"inconclusive [inhibitor, single point]",–
Cc1cccc(NC(=O)C(Cc2ccccc2)n2cccc2)c1 (stereo unspecified),"inconclusive [inhibitor, single point]",–
CCC(=O)N1c2ccccc2-c2nnc(SC)nc2OC1c1ccc(N(C)C)cc1 (stereo unspecified),"inconclusive [inhibitor, single point]",–
CCN(CC)c1ccc(/C=N/NC(=O)c2ccoc2C)cc1,"inconclusive [inhibitor, partial curve]",–
CCn1c(=O)cc(SCC(=O)Nc2ccc(Cl)cc2)c2ccccc21,–,inactive: -17.2%
O=C(c1ccc(Br)cc1)N1CCCC(c2nc(-c3cccs3)no2)C1 (stereo unspecified),"inconclusive [inhibitor, partial curve]",–
C=C(C)C1CC=C(CN2CC(C)OC(C)C2)CC1 (stereo unspecified),"inconclusive [inhibitor, single point]",–
Cn1c(N)c(C(=O)COC(=O)c2ccco2)c(=O)n(C)c1=O,–,inactive: -19.9%
Cc1noc(C)c1NC(=O)Nc1ccc2c(c1)C(=O)N([C@H](C)CO)C[C@H](C)[C@H](CN(C)C(=O)NC1CCCCC1)OCCCC[C@@H](C)O2,–,inactive: 3.72%
O=C(O)P(=O)(O)O,–,inactive: -0.544%
COc1ccc(C(C)=O)cc1CSc1nc2ccccc2c(=O)n1-c1cccc(C)c1,active: 18.4 µM,–
